Data reported in PubChem BioAssay AID1460 (National Center for Advancing Translational Sciences (NCATS), 2008).
About 5,800 (2.1%) of roughly 270,000 compounds were called active. This list was built around the results that the source calls inconclusive (neither active nor inactive); the mix of calls is not that of the screen. Calls come from the whole dose curve; as a rule, active = well fitted inhibition curve with a large enough effect; inconclusive = small, poorly fitted or top-dose-only effect; inactive = flat fitted curve, though single readings scatter. A potency beside an inconclusive call is a rough fit, not a confirmed value.

The molecules below were run against Microtubule-associated protein tau (Homo sapiens) (UniProt P10636) (assay: qHTS for Inhibitors of Tau Fibril Formation, Thioflavin T Binding). Conditions: recombinant tau K18 P301L (four-repeat tau fragment), heparin-induced fibrillization, ThT fluorescence; series mostly up to 57.4 µM.
Method in brief: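 K18 P301L tau (15 uM + 0.24 uM Alexa 594-tagged), heparin 20 uM, NaOAc pH 7, 6 h 37 C; ThT 30 uM, 1 h RT, ex 450/em 510 nm.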
Note: nearly all actives have a fitted effect of over 55% in size.
Potency is the fitted concentration of half-maximal effect; tags give direction and shape of the fitted curve.

Chain of UniProt P10636 (P10636 whole entry, looked up, the tested form may be a part): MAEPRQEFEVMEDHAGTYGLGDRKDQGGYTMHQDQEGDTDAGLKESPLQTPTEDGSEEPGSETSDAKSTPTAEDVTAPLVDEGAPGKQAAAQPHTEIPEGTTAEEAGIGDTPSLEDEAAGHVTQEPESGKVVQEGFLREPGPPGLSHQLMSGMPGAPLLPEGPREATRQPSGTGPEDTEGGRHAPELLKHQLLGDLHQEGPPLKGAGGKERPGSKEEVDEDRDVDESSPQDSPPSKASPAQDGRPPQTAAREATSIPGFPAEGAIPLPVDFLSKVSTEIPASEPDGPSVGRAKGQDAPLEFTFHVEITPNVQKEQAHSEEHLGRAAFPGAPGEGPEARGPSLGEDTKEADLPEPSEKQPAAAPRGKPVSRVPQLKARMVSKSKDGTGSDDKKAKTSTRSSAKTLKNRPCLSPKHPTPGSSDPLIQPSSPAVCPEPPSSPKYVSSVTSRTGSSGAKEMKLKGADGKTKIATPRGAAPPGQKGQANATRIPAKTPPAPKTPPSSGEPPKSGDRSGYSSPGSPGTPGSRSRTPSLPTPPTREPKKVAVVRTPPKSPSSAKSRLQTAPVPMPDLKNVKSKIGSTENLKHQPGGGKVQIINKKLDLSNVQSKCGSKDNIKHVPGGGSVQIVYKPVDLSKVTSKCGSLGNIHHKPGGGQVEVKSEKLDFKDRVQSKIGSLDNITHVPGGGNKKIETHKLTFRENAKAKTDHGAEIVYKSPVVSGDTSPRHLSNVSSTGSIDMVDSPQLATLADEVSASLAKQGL

| Structure (SMILES) | Potency |
| --- | --- |
| CN(C)C(=O)Oc1ccc(-c2cn3cc(Cl)ccc3n2)cc1 | inconclusive: 0.562 µM [inhibitor, full curve] |
| CCOC(=O)C(C)Oc1cc(C)cc2oc(=O)c3c(c12)CCCC3 (stereo unspecified) | inconclusive: 28.2 µM [inhibitor, partial curve] |
| CCCC[C@@H](C)[C@@H](OC(=O)C[C@@H](CC(=O)O)C(=O)O)[C@H](C[C@@H](C)C[C@H](O)CCCC[C@@H](O)C[C@H](O)[C@H](C)N)OC(=O)C[C@H](CC(=O)O)C(=O)O | inactive |
| Cc1ccc(N2C(=O)NC(=O)/C(=C/C=C/c3ccco3)C2=O)cc1 | active: 14.1 µM |
| CCCCCCCCc1[se]c2ccccc2c1Br | inactive |
| COc1ccc(Cn2c(O)c(/C=N/NC(=O)c3ccncc3)c(=O)[nH]c2=O)cc1 | inconclusive: 20 µM [inhibitor, partial curve] |
| [O-]/[N+](=C/c1cccnc1)c1ccc(Br)cc1 | active: 28.2 µM |
| Cc1ccc(-n2c(C)cc(/C=C3/C(=O)NC(=O)N(Cc4ccco4)C3=O)c2C)cc1 | inconclusive: 35.5 µM [inhibitor, single point] |
| O=C1NC(=O)N(Cc2ccc(F)cc2)C(=O)/C1=C/c1cccs1 | inconclusive: 7.94 µM [inhibitor, partial curve] |
| COc1cccc(N=Nc2c(O)[nH]c(=S)[nH]c2=O)c1 | active: 7.08 µM |
| Cc1oc(-c2ccccc2Cl)nc1CN1C(=O)CN=C(c2ccccc2)c2ccccc21 | inconclusive: 28.2 µM [inhibitor, single point] |
| CN(C)c1ccc(CN2CCc3nc(N4CCN(c5ccccn5)CC4)ncc3C2)cc1 | inconclusive: 25.1 µM [inhibitor, partial curve] |
| O=C1NS(=O)c2cc([N+](=O)[O-])cc([N+](=O)[O-])c21 (stereo unspecified) | inconclusive: 25.1 µM [inhibitor, partial curve] |
| CC(C)N1C(=O)NC(=O)C2(Cc3cc([N+](=O)[O-])ccc3N(C)C2c2ccccc2)C1=O (stereo unspecified) | inconclusive: 22.4 µM [inhibitor, partial curve] |
| Cc1cc(C=C2C(=O)N(C)C(=S)N(C)C2=O)c(C)n1C1CCCC1 | active: 25.1 µM |
| Nc1cccc(N=Cc2c(O)n(Cc3ccc(F)cc3)c(=O)[nH]c2=O)c1 | inactive |
| Cc1ccccc1CN1CCN(C(=O)Cc2ccccc2)CC1 | inactive |
| C=C1C(=O)O[C@H]2C[C@@H](C)[C@@H]3C=CC(=O)[C@@]3(C)C[C@H]12 | active: 17.8 µM |
| Cc1cccc(N2C(=O)NC(=O)/C(=C\c3cccn3-c3ccc(Cl)cc3)C2=O)c1 | inconclusive: 15.8 µM [inhibitor, partial curve] |
| Cc1ccc2c(c1)=NC(=O)/C(=C/c1c(O)[nH]c(=O)[nH]c1=O)C=2 | inactive |
| CS(=N)(=O)CC[C@H](N)C(=O)O (stereo partly specified) | inactive |
| COc1c(C)cc(Br)cc1C(=O)Nc1ccc(-c2nc3ncccc3o2)cc1 | inconclusive: 1.26 µM [inhibitor, full curve] |
| CCOc1ccc2nc(N=Nc3c(O)[nH]c(=S)[nH]c3=O)sc2c1 | active: 2.24 µM |
| Cc1ccc(N2C(=O)NC(=O)/C(=C\c3ccoc3)C2=O)cc1 | inconclusive: 3.98 µM [inhibitor, full curve] |

| Structure (SMILES) | Potency |
| --- | --- |
| COc1ccc(C2C([N+](=O)[O-])=C(N)Oc3c2c(=O)oc2ccccc32)cc1 (stereo unspecified) | inconclusive: 35.5 µM [inhibitor, single point] |
| NC(=NCCc1ccc(I)cc1)SCCCc1cnc[nH]1 | inactive |
| CN1CCN(c2ccc([N+](=O)[O-])c(N3CCCCC3)c2)CC1 | inactive |
| O=C(O[C@@H]1Cc2c(O)cc(O)cc2O[C@@H]1c1cc(O)c(O)c(O)c1)c1cc(O)c(O)c(O)c1 | active: 12.6 µM |
| CCOP(=O)(c1ccccc1)c1nc(-c2ccc(F)cc2)oc1N1CCCCC1 (stereo unspecified) | inconclusive: 2.82 µM [inhibitor, partial curve, poor fit] |
| O=C1NC(=O)N(Cc2ccccc2Cl)C(=O)/C1=C/N1CCOCC1 | active: 17.8 µM |
| COc1ccccc1-n1c(O)c(C=NCCN2CCNCC2)c(=O)[nH]c1=O | inconclusive: 44.7 µM [inhibitor, single point] |
| CCCNS(=O)(=O)c1ccc(OCC(=O)N2CCN(Cc3ccccc3)CC2)cc1 | inactive |
| N#CC1=C(N)Oc2c(c(=O)sc3ccccc23)C1c1ccncc1 (stereo unspecified) | inconclusive: 12.6 µM [inhibitor, partial curve, poor fit] |
| CCCCn1c(NC(=O)c2ccc(Br)o2)c(C(=O)OCC)c2nc3ccccc3nc21 | inconclusive: 14.1 µM [inhibitor, partial curve] |
| COc1ccc(N2C(=O)CC(=O)NC2=O)cc1 | inconclusive: 15.8 µM [inhibitor, single point] |
| CC(C)c1cc2c(c(O)c1O)[C@]1(C(=O)O)CCCC(C)(C)C1CC2 (stereo partly specified) | active: 28.2 µM |
| Cn1c(NN=O)nc2ccccc21 | active: 17.8 µM |
| Cc1c(Cl)ccc2sc(N3CCN(C(=O)CCS(=O)(=O)c4ccc(F)cc4)CC3)nc12 | inconclusive: 1.58 µM [inhibitor, full curve, poor fit] |
| N#Cc1c(/N=C/c2ccc(O)cc2O)sc2c1C1CCN2CC1 | inconclusive: 5.01 µM [inhibitor, partial curve] |
| O=C(c1cc2nc(-c3ccccc3)cc(-c3ccccc3)n2n1)N1CCC2(CC1)OCCO2 | inactive |
| CNC(C)[C@H](O)c1ccccc1 (stereo partly specified) | inactive |
| CCN1CCN(c2ccc(N)cc2C)CC1 | inconclusive: 39.8 µM [inhibitor, single point] |
| CC(=O)OC[C@H](N)C(=O)c1ccccc1 | inactive |
| O=C(Nc1ccc(Br)cc1C(=O)c1ccccc1Cl)c1ccc(Br)cc1 | inconclusive: 28.2 µM [inhibitor, single point] |
| O=c1[nH]cc(F)c(=O)[nH]1 | inconclusive: 5.62 µM [inhibitor, partial curve, poor fit] |
| COc1ccc2c(c1OC)C(=O)OC2c1c(O)n(C2CCCCC2)c(=O)[nH]c1=O (stereo unspecified) | inconclusive: 15.8 µM [inhibitor, partial curve] |
| CCOc1ccc(Cc2c(O)[nH]c(=O)[nH]c2=O)cc1 | active: 28.2 µM |
| COc1ccc(/C=C2/C(=O)N(Cc3ccco3)C(=O)N(C(C)C)C2=O)cc1 | active: 17.8 µM |

| Structure (SMILES) | Potency |
| --- | --- |
| Cc1ccc(NC(=O)Nc2ccc3nc(N4CCN(C)CC4)cc(C)c3c2)cc1F | active: 14.1 µM |
| CCOC(=O)c1c(/N=C/C2C(=O)NC(=S)NC2=O)sc2c1CCC2 | inconclusive: 20 µM [inhibitor, partial curve] |
| CCCc1cc(N2CCN(c3cccc(C)c3C)CC2)n2cnnc2n1 | inconclusive: 17.8 µM [inhibitor, partial curve] |
| O=C1NC(=O)C(=Cc2ccccc2OCCOc2ccc([N+](=O)[O-])cc2)C(=O)N1 | inconclusive: 11.2 µM [inhibitor, partial curve] |
| Cc1cc(/C=C2\C(=O)NC(=O)N(c3ccc(Cl)cc3)C2=O)c(C)n1C | inconclusive: 15.8 µM [inhibitor, partial curve, poor fit] |
| CC(N)Cc1c[nH]c2cc3c(cc12)OCCO3 (stereo unspecified) | inconclusive: 15.8 µM [inhibitor, partial curve, poor fit] |
| O=c1[nH]c(O)c(N=Nc2ccc(S(=O)(=O)N3CCOCC3)cc2)c(=O)[nH]1 | inconclusive: 14.1 µM [inhibitor, partial curve] |
| CN(C)C1=NP(N(C)C)(N(C)C)=NC(c2ccccc2)=N1 | inactive |
| C1CC[C@H]([C@@]23C[C@H](C[C@H]4CCCN[C@H]42)[C@@H]2CCCCN2C3)NC1 | inactive |
| OC12ONC(c3ccccn3)C1N1CCC2CC1 (stereo unspecified) | active: 12.6 µM |
| O=C(C1CCCN(c2nnc(-n3cccc3)s2)C1)N1CCC2(CC1)OCCO2 (stereo unspecified) | inconclusive: 35.5 µM [inhibitor, partial curve] |
| O=C(C1CC(c2ccc(Cl)c(Cl)c2)=NO1)N1CCC2(CC1)OCCO2 (stereo unspecified) | inconclusive: 35.5 µM [inhibitor, single point] |
| CCC(COC(=O)c1cc(OC)c(OC)c(OC)c1)(c1ccccc1)N(C)C (stereo unspecified) | inconclusive: 31.6 µM [inhibitor, single point] |
| CNC(=O)COC(=O)c1ccc(-c2nc3ccccc3s2)s1 | inconclusive: 7.94 µM [inhibitor, partial curve] |
| CN1Cc2c(c(C#N)c(N)n(C)c2=S)CC1(C)C | inconclusive: 15.8 µM [inhibitor, partial curve, poor fit] |
| O=C1NC(=O)N(c2ccccc2)C(=O)/C1=C\c1ccc([N+](=O)[O-])o1 | active: 17.8 µM |
| CN(CCOc1ccc(C=C2C(=O)NC(=O)NC2=O)cc1)c1ccccn1 | inconclusive: 8.91 µM [inhibitor, partial curve, poor fit] |
| CCCN(CCC)CCc1ccc(O)c(O)c1 | inactive |
| O=c1[nH]c(=O)n(Cc2ccc(F)cc2)c(O)c1C=NCCCN1CCOCC1 | inactive |
| O=c1[nH]c(=O)n(CCC2=CCCCC2)c(O)c1C=NCc1cccnc1 | inactive |
| CCOc1ccc(N(C(C)C(=O)Nc2cc(Cl)ccc2OC)S(C)(=O)=O)cc1 (stereo unspecified) | inconclusive: 44.7 µM [inhibitor, single point] |
| O=C1NC(=O)C2(Cc3ccccc3N3CCCC32)C(=O)N1c1cccc(Cl)c1 (stereo unspecified) | inconclusive: 11.2 µM [inhibitor, single point] |
| O=C(C1CCN(S(=O)(=O)c2ccc(Br)s2)CC1)N1CCN(c2ccccc2)CC1 | inconclusive: 39.8 µM [inhibitor, single point] |
